About 5,700 (2.6%) of roughly 220,000 compounds were called active. Inconclusive results, whose numbers are uncertain, are shown with a selection of clear calls. The call rests on the fitted dose curve; in most records, active means well fitted inhibition curve with a large enough effect; inconclusive means small, poorly fitted or top-dose-only effect; inactive means no such curve, though single readings can be large or run the other way. Potencies of inconclusive entries are doubtful fits and often do not repeat.
These compounds were tested against Lysine-specific demethylase 5B (Homo sapiens) (UniProt Q9UGL1) (assay: Primary screen for KDM5B Histone Demethylases FDH-coupled qHTS). Settings: FDH-coupled NADH fluorescence (FDH is formaldehyde dehydrogenase); activity change, negative = inhibition: at 57.7 µM (top of the series) unless noted.
Sequence of UniProt Q9UGL1 (Q9UGL1 whole entry, looked up): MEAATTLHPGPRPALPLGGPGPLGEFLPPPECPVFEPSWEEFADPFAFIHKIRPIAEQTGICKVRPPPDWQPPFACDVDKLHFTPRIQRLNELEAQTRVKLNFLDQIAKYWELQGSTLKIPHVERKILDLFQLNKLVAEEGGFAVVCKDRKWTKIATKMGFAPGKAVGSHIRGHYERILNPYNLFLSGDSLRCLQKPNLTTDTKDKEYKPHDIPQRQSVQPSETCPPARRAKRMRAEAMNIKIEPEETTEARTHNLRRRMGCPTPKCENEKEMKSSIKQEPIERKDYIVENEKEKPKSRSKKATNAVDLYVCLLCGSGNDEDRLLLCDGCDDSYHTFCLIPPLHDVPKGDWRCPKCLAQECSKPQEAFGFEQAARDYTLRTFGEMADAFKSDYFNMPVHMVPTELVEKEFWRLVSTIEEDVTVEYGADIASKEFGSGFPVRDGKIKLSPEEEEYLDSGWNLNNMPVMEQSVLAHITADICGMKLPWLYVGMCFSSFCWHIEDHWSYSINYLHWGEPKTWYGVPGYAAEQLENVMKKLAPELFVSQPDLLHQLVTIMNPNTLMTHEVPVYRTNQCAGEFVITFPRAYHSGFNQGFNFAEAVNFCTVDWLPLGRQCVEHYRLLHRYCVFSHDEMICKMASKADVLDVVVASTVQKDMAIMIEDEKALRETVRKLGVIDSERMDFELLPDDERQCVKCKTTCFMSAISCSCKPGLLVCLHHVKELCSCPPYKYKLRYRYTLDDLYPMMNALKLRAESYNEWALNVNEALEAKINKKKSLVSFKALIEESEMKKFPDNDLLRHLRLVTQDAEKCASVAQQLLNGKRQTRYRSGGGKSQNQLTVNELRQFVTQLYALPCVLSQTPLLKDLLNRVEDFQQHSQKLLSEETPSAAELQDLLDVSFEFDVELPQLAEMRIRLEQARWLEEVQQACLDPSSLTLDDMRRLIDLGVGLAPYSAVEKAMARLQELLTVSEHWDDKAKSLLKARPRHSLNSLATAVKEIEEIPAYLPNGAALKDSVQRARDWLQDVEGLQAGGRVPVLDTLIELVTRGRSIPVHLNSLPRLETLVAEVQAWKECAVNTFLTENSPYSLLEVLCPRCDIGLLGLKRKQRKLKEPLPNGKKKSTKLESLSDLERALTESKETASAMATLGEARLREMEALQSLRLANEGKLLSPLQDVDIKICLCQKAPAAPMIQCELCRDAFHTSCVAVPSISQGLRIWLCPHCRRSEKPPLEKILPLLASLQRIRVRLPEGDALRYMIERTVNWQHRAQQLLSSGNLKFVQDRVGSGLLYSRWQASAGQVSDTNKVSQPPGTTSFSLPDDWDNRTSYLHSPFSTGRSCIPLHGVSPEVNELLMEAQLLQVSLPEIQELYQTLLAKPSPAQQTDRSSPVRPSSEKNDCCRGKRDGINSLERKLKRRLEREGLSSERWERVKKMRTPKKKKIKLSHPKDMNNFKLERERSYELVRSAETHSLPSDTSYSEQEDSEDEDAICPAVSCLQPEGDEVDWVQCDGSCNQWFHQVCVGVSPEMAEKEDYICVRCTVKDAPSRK
Procedure, shortened: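 Coupled FDH/NAD⁺ fluorescence readout. KDM5BΔAP 200 nM final; compound titration, 10 min RT preincubation; substrate mix 12.5 µM H3K4me3, 25 µM 2-OG, 50 µM Fe(II), 100 µM ascorbate, 0.25 mM NAD⁺, 0.25 U/mL FDH; ΔRFU over 30 min.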
Further: nearly all actives have a fitted effect of over 70% in size.
Potency means the concentration at half of the fitted maximal effect; tags describe the fitted curve by direction and shape.
Wherever activity change, negative = inhibition is given: 0% is about no effect.

Structure (SMILES) | Potency | activity change, negative = inhibition
CC(=O)Nc1ccc(SC2CCCC2)cc1 | inactive | 
CC(=O)N1CCc2cc(S(=O)(=O)NC(Cc3ccccc3)C(=O)Nc3cccc(C)c3)ccc21 (stereo unspecified) | inconclusive: 6.31 µM [inhibitor, partial curve, poor fit] | 
Oc1c(C(c2ccc(F)cc2)N2CCOCC2)sc2nc(-c3ccco3)nn12 (stereo unspecified) | inconclusive: 39.8 µM [inhibitor, single point] | 
CN1Cc2nc(-c3cnn(C)c3)ccc2OCC1=O | inconclusive: 31.6 µM [inhibitor, single point] | 
CCc1nc2ccccc2c(C(=O)OCC(=O)NC(=O)NC(C)C)c1C | inactive | 
CCOC(=O)Cc1ccc(NC(=O)Nc2c[nH]c(=O)[nH]c2=O)cc1 |  | inconclusive: -41.1% [inhibitor]
N#Cc1ccccc1Nc1ccnc(N2CC3CCC(C2)N3CC(F)(F)F)n1 | inconclusive: 70.8 µM [inhibitor, single point] | 
CC(=O)Oc1ccc(N2C(=O)C3C(C2=O)C(C(=O)c2ccc(Cl)cc2)N2CCCC32)cc1 (stereo unspecified) | inconclusive: 17.8 µM [inhibitor, single point] | 
CC(C)N1CCC(CNC(=O)Nc2ccccc2F)C1 (stereo unspecified) | inactive | 
Cn1c(=O)[nH]c(=O)c2c1nc(N1CCOCC1)n2Cc1ccccc1 | inconclusive: 25.1 µM [inhibitor, partial curve, poor fit] | 
CC(C)c1nc2c(c(-c3ccc(Cl)cc3)n1)CCN(Cc1ccc(N(C)C)cc1)CC2 | inconclusive: 79.4 µM [inhibitor, partial curve] | 
Cn1c(=O)n(C)c2cc(SC3CCCCC3)c(NS(=O)(=O)c3cccc(Cl)c3)cc21 | inactive | 
Cc1csc(NC(=O)c2nc(C(O)c3cccc(O)c3)oc2C)n1 (stereo unspecified) | inconclusive: 7.94 µM [inhibitor, partial curve, poor fit] | 
COC(CNC(=O)c1cc(-c2ccccc2)nc2ccccc12)OC | inconclusive: 39.8 µM [inhibitor, single point] | 
Cc1ccc2c(c1)c1c(c(=O)n(-c3cccc(Cl)c3)c(=O)n1CC(=O)NCC1CCCO1)n2C (stereo unspecified) | inconclusive: 1.58 µM [inhibitor, full curve, poor fit] | 
C=CCNC(=O)c1cccc2c(=O)c(C)c(-c3ccccc3)oc12 | inactive | 
Cc1ccc2nc(-c3cccs3)c(Nc3c(C)cccc3C)n2c1 | inconclusive: 35.5 µM [inhibitor, partial curve, poor fit] | 
COc1ccc(NC(=O)/C=C/c2ccc(C(C)(C)C)cc2)cc1Cl | inconclusive: 39.8 µM [inhibitor, partial curve, poor fit] | 
Cc1ccccc1Oc1nc2ccccn2c(=O)c1/C=C(\C#N)c1nc2ccccc2[nH]1 | inconclusive: 22.4 µM [inhibitor, partial curve, poor fit] | 
O=S1(=O)c2ccc(N3CCSCC3)cc2Oc2ccccc2CN1Cc1cn(Cc2ccc(Cl)cc2)nn1 | inconclusive: 20 µM [inhibitor, single point] | 
CCn1nccc1C(=O)N1CCCC(c2nnc(CN3CCCC3)n2C)C1 (stereo unspecified) | inactive | 
COc1ccc(Cc2nc3ccc(C(=O)NCc4ccccc4C)cc3o2)cc1 | inconclusive: 39.8 µM [inhibitor, single point] | 

Structure (SMILES) | Potency | activity change, negative = inhibition
CCC(CC)C(=O)Nc1ccc2nc(SCC(=O)N3CCCC3)sc2c1 |  | inconclusive: -40.6% [inhibitor]
O=C1CCN(C2CCN(Cc3ccccc3)CC2)CCCC(C(=O)NCc2ccccc2)CCN1 (stereo unspecified) | inactive | 
N#Cc1nc(-c2ccc(F)cc2)oc1N1CCN(c2ccccc2)CC1 | inactive | 
CCN(Cc1ccc2c(c1)OCCO2)C(=O)Cn1cnc2c(cnn2C)c1=O | inactive | 
CCCn1cc(-c2ccnc(NCc3c(F)ccc(C)c3F)n2)c(C)n1 | inconclusive: 7.08 µM [inhibitor, partial curve, poor fit] | 
CC(=O)N1C[C@@H]2CCCN3CCC[C@@H]([C@H]23)[C@H]1CCCC(=O)N(C)C | active: 20 µM | 
O=C(CSCCSCC(=O)c1ccccc1)c1ccccc1 | inactive | 
O=C(Cc1cccc(F)c1)NCC1COc2ncncc2C(=O)N1Cc1ccccc1 (stereo unspecified) | active: 28.2 µM | 
CCCc1nc(C(=O)N2CCCCC2C(=O)OCC)cs1 (stereo unspecified) | inactive | 
CN(C)CCCOCC1(C)COc2ccc(C(=O)Nc3cccc(Cl)c3)cc2N1 (stereo unspecified) | active: 31.6 µM | 
Cc1ccc(C)c(NC(=O)Cn2c(=O)n(CCC(C)C)c(=O)c3cccnc32)c1 | inconclusive: 15.8 µM [inhibitor, partial curve, poor fit] | 
CN(CC(=O)NC(C)(C)C)C(=O)c1cc(=O)[nH]c2ccccc12 | inconclusive: 39.8 µM [inhibitor, single point] | 
O=C(c1ccccn1)N1C[C@@H]2C[C@H](C1)c1ccc(NS(=O)(=O)Cc3ccccc3)c(=O)n1C2 | inconclusive: 14.1 µM [inhibitor, partial curve] | 
Cc1ccc(-n2nnc(C(=O)N(C)c3ccccc3)c2C)cc1Cl | inactive | 
N#Cc1nc(-c2ccccc2)oc1N1CCOCC1 | inconclusive: 22.4 µM [inhibitor, partial curve, poor fit] | 
Cc1ccc(C)c(NC(=O)CN(C)S(=O)(=O)c2cccc3nsnc23)c1 | inconclusive: 39.8 µM [inhibitor, single point] | 
CN(C)C[C@@H]1CN(C)C[C@H]1NC(=O)c1cnn(C)c1 | inconclusive: 11.2 µM [inhibitor, partial curve, poor fit] | 
Cc1cc(SCC(=O)Nc2sccc2C(N)=O)nc2ccccc12 | inactive | 
COc1cc(C2CC(=O)Nc3nc(N4CCCCC4)sc32)cc(OC)c1OC (stereo unspecified) | inconclusive: 20 µM [inhibitor, partial curve, poor fit] | 
Fc1ccc(-c2noc(CSc3nncc4ccccc34)n2)cc1 | inconclusive: 39.8 µM [inhibitor, single point] | 
Cc1cccc2nc(CNC(=O)c3cccc(C4CCNC4)c3)cn12 (stereo unspecified) | inconclusive: 28.2 µM [inhibitor, single point] | 
CNc1ncc(CN(C)c2cc(C3CC(N)C3)nc(COC)n2)cn1 (stereo unspecified) | inconclusive: 31.6 µM [inhibitor, single point] | 

Structure (SMILES) | Potency | activity change, negative = inhibition
Oc1ccccc1CN1CCNc2cnc(Oc3ccccc3)cc2C1 | inconclusive: 31.6 µM [inhibitor, single point] | 
CCc1cccc(NC(=O)c2cc3c(=O)n(Cc4ccccc4)ccc3nc2C)c1 | inconclusive: 8.91 µM [inhibitor, partial curve, poor fit] | 
CC(=O)Nc1ccc2nc(CN3CCN(Cc4ccc(F)cc4)C(CCO)C3)ccc2c1 (stereo unspecified) | inconclusive: 25.1 µM [inhibitor, partial curve, poor fit] | 
COC(=O)C(Br)(C(=O)OC)C(OC)(C(=O)OC)C(=O)OC | inconclusive: 3.16 µM [inhibitor, full curve, poor fit] | 
COC(=O)C1C(C(=O)OC)C2(OC(c3ccccc3)=CC2=O)C12OC(c1ccccc1)=CC2=O (stereo unspecified) | inactive | 
CCOc1ccccc1-n1c(Cc2ccc(O)cc2)n[nH]c1=O | inactive | 
CCN1c2cc(C(=O)Nc3cccc(C(F)(F)F)c3)ccc2C(=O)N2CCCC21 (stereo unspecified) | inconclusive: 28.2 µM [inhibitor, partial curve, poor fit] | 
O=C(c1nnn2cc(-c3ccccc3)[nH]c(=O)c12)N1CCCCCC1 | inconclusive: 35.5 µM [inhibitor, partial curve, poor fit] | 
Cc1ccc(CCNC(=O)c2ccc3c(c2)N(C)C2CCCCN2C3=O)cc1 (stereo unspecified) | inconclusive: 20 µM [inhibitor, partial curve, poor fit] | 
COc1ccc(-c2[nH]nc3ncc(C(=O)NCc4ccccc4)nc23)c(C)c1 | inconclusive: 25.1 µM [inhibitor, partial curve, poor fit] | 
Cc1ccc(NC(=O)c2cnc(N3CCCCC3)c3ccccc23)cc1 | inconclusive: 35.5 µM [inhibitor, single point] | 
Cc1cccnc1CN(C)C(=O)c1ccc2nc(-c3ccccc3)cn2c1 | active: 28.2 µM | 
Cc1nc2cc(NC(=O)C(C)(C)Oc3ccc(Cl)cc3)ccc2o1 | inactive | 
Cc1ccc(-c2nc(C)c(CCNC(=O)c3cccs3)s2)cc1 | inconclusive: 12.6 µM [inhibitor, partial curve, poor fit] | 
CC(=O)Nc1nc2n(n1)C(c1ccc(F)cc1)C=C(c1ccc(Cl)cc1)N2 (stereo unspecified) | inconclusive: 25.1 µM [inhibitor, partial curve, poor fit] | 
CC(C)CN[C@H]1CO[C@H]2[C@@H]1OC[C@@H]2Nc1nccc(-c2cccs2)n1 | active: 31.6 µM | 
COc1ccc(CCNC(=O)CCn2c(=O)c3ccccc3n(Cc3ccccc3F)c2=O)cc1OC | inconclusive: 0.794 µM [inhibitor, full curve, poor fit] | 
CN1c2cc(C(=O)Nc3ccc(C(N)=O)cc3)ccc2C(=O)N2CCCCC21 (stereo unspecified) | inconclusive: 22.4 µM [inhibitor, single point] | 
COc1ccc(-c2cc(-c3ccc4cn[nH]c4c3)cn3cncc23)cc1 | inconclusive: 14.1 µM [inhibitor, partial curve, poor fit] | 
COc1ccc(-c2ccc3c(n2)CN(Cc2ccccc2)C(=O)CO3)cc1F | active: 20 µM | 
COc1ccc(-c2cc(N3CCCN(C(=O)c4ccccn4)CC3)n[nH]2)cc1 | inconclusive: 15.8 µM [inhibitor, partial curve] | 
CNC(C)c1ccco1 (stereo unspecified) | inconclusive: 22.4 µM [inhibitor, partial curve, poor fit] | 
